Some of the results follow.

The results in this text go back to PMC12820563, “FoxP3 forms a head-to-head dimer in vivo and stabilizes its multimerization on adjacent microsatellites”.

The target in the assay is T1, MBP-FoxP1dN (Mus musculus, UniProt P58462 326-579).
T1 sequence: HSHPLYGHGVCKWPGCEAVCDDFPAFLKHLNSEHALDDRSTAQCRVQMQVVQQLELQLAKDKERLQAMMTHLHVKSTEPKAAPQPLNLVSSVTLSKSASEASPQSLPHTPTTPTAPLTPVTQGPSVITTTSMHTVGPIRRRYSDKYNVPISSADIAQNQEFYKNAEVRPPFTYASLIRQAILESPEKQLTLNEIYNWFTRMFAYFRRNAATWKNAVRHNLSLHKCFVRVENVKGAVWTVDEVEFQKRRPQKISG
In words: PD-seq (MBP pull-down with sequencing); 20 mM Tris-HCl pH 7.5, 100 mM NaCl, 1.5 mM MgCl2, 0.4 uM protein, 0.1 uM dsDNA library, 30 min, room temperature, amylose pull-down; high values mean tight binding. The conditions noted are these: protein: recombinant; tags: His6-MBP; chain copies: 2; dsDNA, one strand shown. The gist of the method:
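Protein and DNA were mixed at 0.4 µM and 0.1 µM and held for 30 min at room temperature in Tris pH 7.5 buffer with NaCl and MgCl2; the protein was a His6-MBP-tagged, N-terminally truncated mouse FoxP3 or FoxP1 fragment from E. coli, and the DNA a Klenow-filled double-stranded degenerate library. Amylose resin captured the complexes, which were washed three times. Binding is read as reads-per-million enrichment of pull-down versus input after Illumina sequencing, with replicates pooled.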
For the sequence “GATGATTGTTCTCCCAGCTGATGAATTACTGCCGTCGAGTAAACAAATTTTCCTAATCTTTCTGTTCAAGCGCCATCTAC”, the binding signal was 0.959 RPM ratio (pull-down/input). The figure for “GATGATTGTTCTCCCAGCTGATGAATTAGTTCCATCGAGTAAACAAATTTTCCTAATCTTTCTGTTCAAGCGCCATCTAC” is 0.972 RPM ratio (pull-down/input); for “GATGATTGTTCTCCCAGCTGATGAATTAGAACCCTCGAGTAAACAAATTTTCCTAATCTTTCTGTTCAAGCGCCATCTAC” it is 0.832 RPM ratio (pull-down/input). “GATGATTGTTCTCCCAGCTGATGAATTAACTCCATCGAGTAAACAAATTTTCCTAATCTTTCTGTTCAAGCGCCATCTAC”: the binding signal was 0.914 RPM ratio (pull-down/input). The figure for “GATGATTGTTCTCCCAGCTGATGAATTCACGCCTTCGAGTAAACAAATTTTCCTAATCTTTCTGTTCAAGCGCCATCTAC” is 0.972 RPM ratio (pull-down/input). In the case of “GATGATTGTTCTCCCAGCTGATGAATTTATTCAGTCGAGTAAACAAATTTTCCTAATCTTTCTGTTCAAGCGCCATCTAC” it was 1.14 RPM ratio (pull-down/input); in that of “GATGATTGTTCTCCCAGCTGATGAATTTACGTGGTCGAGTAAACAAATTTTCCTAATCTTTCTGTTCAAGCGCCATCTAC”, 1.11 RPM ratio (pull-down/input); in that of “GATGATTGTTCTCCCAGCTGATGAATTGCCCACTTCGAGTAAACAAATTTTCCTAATCTTTCTGTTCAAGCGCCATCTAC”, 0.941 RPM ratio (pull-down/input). The figure for “GATGATTGTTCTCCCAGCTGATGAATTCAATCCATCGAGTAAACAAATTTTCCTAATCTTTCTGTTCAAGCGCCATCTAC” is 0.967 RPM ratio (pull-down/input); for “GATGATTGTTCTCCCAGCTGATGAATTCATTGGCTCGAGTAAACAAATTTTCCTAATCTTTCTGTTCAAGCGCCATCTAC” it is 0.795 RPM ratio (pull-down/input). With “GATGATTGTTCTCCCAGCTGATGAATTACCGGATTCGAGTAAACAAATTTTCCTAATCTTTCTGTTCAAGCGCCATCTAC”, the binding signal was 0.972 RPM ratio (pull-down/input). In the case of “GATGATTGTTCTCCCAGCTGATGAATTACTGGTCTCGAGTAAACAAATTTTCCTAATCTTTCTGTTCAAGCGCCATCTAC”, the binding signal was 0.851 RPM ratio (pull-down/input). Turning to “GATGATTGTTCTCCCAGCTGATGAATTGAGCCGGTCGAGTAAACAAATTTTCCTAATCTTTCTGTTCAAGCGCCATCTAC”, the binding signal was 0.734 RPM ratio (pull-down/input).

“GATGATTGTTCTCCCAGCTGATGAATTCCCGCGCTCGAGTAAACAAATTTTCCTAATCTTTCTGTTCAAGCGCCATCTAC”: the binding signal is 0.805 RPM ratio (pull-down/input). For “GATGATTGTTCTCCCAGCTGATGAATTCTCACGCTCGAGTAAACAAATTTTCCTAATCTTTCTGTTCAAGCGCCATCTAC”, the binding signal was 0.88 RPM ratio (pull-down/input). With “GATGATTGTTCTCCCAGCTGATGAATTCGGTAGGTCGAGTAAACAAATTTTCCTAATCTTTCTGTTCAAGCGCCATCTAC”, the binding signal was 0.791 RPM ratio (pull-down/input). In the case of “GATGATTGTTCTCCCAGCTGATGAATTTTAGGGCTCGAGTAAACAAATTTTCCTAATCTTTCTGTTCAAGCGCCATCTAC” it was 0.789 RPM ratio (pull-down/input); in that of “GATGATTGTTCTCCCAGCTGATGAATTTTCTCAGTCGAGTAAACAAATTTTCCTAATCTTTCTGTTCAAGCGCCATCTAC”, 0.973 RPM ratio (pull-down/input). Turning to “GATGATTGTTCTCCCAGCTGATGAATTGAAATATTCGAGTAAACAAATTTTCCTAATCTTTCTGTTCAAGCGCCATCTAC”, the binding signal was 0.884 RPM ratio (pull-down/input). The figure for “GATGATTGTTCTCCCAGCTGATGAATTAGCCAACTCGAGTAAACAAATTTTCCTAATCTTTCTGTTCAAGCGCCATCTAC” is 0.857 RPM ratio (pull-down/input); for “GATGATTGTTCTCCCAGCTGATGAATTGCTCTCATCGAGTAAACAAATTTTCCTAATCTTTCTGTTCAAGCGCCATCTAC” it is 1.04 RPM ratio (pull-down/input); for “GATGATTGTTCTCCCAGCTGATGAATTCCAAGGCTCGAGTAAACAAATTTTCCTAATCTTTCTGTTCAAGCGCCATCTAC” it is 0.734 RPM ratio (pull-down/input). For “GATGATTGTTCTCCCAGCTGATGAATTATTAAGATCGAGTAAACAAATTTTCCTAATCTTTCTGTTCAAGCGCCATCTAC”, the binding signal was 1.08 RPM ratio (pull-down/input). The figure for “GATGATTGTTCTCCCAGCTGATGAATTATAGAACTCGAGTAAACAAATTTTCCTAATCTTTCTGTTCAAGCGCCATCTAC” is 0.936 RPM ratio (pull-down/input); for “GATGATTGTTCTCCCAGCTGATGAATTTTGCGGCTCGAGTAAACAAATTTTCCTAATCTTTCTGTTCAAGCGCCATCTAC” it is 0.831 RPM ratio (pull-down/input).

In the case of “GATGATTGTTCTCCCAGCTGATGAATTTTGAAATTCGAGTAAACAAATTTTCCTAATCTTTCTGTTCAAGCGCCATCTAC”, the binding signal was 0.952 RPM ratio (pull-down/input). Take “GATGATTGTTCTCCCAGCTGATGAATTTGATAACTCGAGTAAACAAATTTTCCTAATCTTTCTGTTCAAGCGCCATCTAC”: the binding signal is 0.988 RPM ratio (pull-down/input). For “GATGATTGTTCTCCCAGCTGATGAATTGGCTTGATCGAGTAAACAAATTTTCCTAATCTTTCTGTTCAAGCGCCATCTAC”, the binding signal was 0.863 RPM ratio (pull-down/input).

Regarding “GATGATTGTTCTCCCAGCTGATGAATTCTTATCGTCGAGTAAACAAATTTTCCTAATCTTTCTGTTCAAGCGCCATCTAC”, the binding signal is 0.945 RPM ratio (pull-down/input). On to “GATGATTGTTCTCCCAGCTGATGAATTTAAACTTTCGAGTAAACAAATTTTCCTAATCTTTCTGTTCAAGCGCCATCTAC”, for which the binding signal was 0.882 RPM ratio (pull-down/input). In the case of “GATGATTGTTCTCCCAGCTGATGAATTCGGATTCTCGAGTAAACAAATTTTCCTAATCTTTCTGTTCAAGCGCCATCTAC”, the binding signal was 0.844 RPM ratio (pull-down/input). The figure for “GATGATTGTTCTCCCAGCTGATGAATTTGGACGGTCGAGTAAACAAATTTTCCTAATCTTTCTGTTCAAGCGCCATCTAC” is 0.86 RPM ratio (pull-down/input).
